Experimental data: PubChem BioAssay AID1454 (National Center for Advancing Translational Sciences (NCATS), 2008)
In all, about 130,000 compounds went through this assay and about 550 (0.42%) were called active. Inconclusive results (about 4%) are left out. Calls come from the whole dose curve; as a rule, active = well fitted inhibition curve with a large enough effect; inconclusive = small, poorly fitted or top-dose-only effect, or effect the other way; inactive = flat fitted curve, though single readings scatter. The entries are a selection whose mix differs from that of the whole data set.

Assay: qHTS Assay for Inhibitors of the ERK Signaling Pathway using a Homogeneous Screening Assay; Stimulation with EGF; note: nearly all actives have a fitted effect of over 55% in size;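 for activity change, negative = inhibition: plate controls were stimulated vehicle wells for no effect and unstimulated vehicle basal for full effect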
Conditions: HEK293-V1b, EGF-stimulated phospho-ERK AlphaScreen; activity change, negative = inhibition: at the top concentration
Summary of the method: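 HEK293 cells stably expressing V1b receptor, serum-reduced (1% FBS) overnight, pretreated 30 min with compound, then stimulated 5 min with 25 nM EGF; phospho-ERK detected by AlphaScreen SureFire. AC50 from Hill fits, normalized to DMSO and EGF.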
Potency is the fitted concentration of half-maximal effect.

| SMILES | activity change, negative = inhibition | Potency |
| --- | --- | --- |
| COC(=O)c1cccc(C23CC4(C2)[C@H](CN(Cc2cccnc2)[C@@H]4c2ccccc2)C3c2ccccc2)c1 (some centres not stated) | inactive: -3.86% [at 57.5 µM] | – |
| O=C(NNc1nc2cc3c(cc2s1)OCO3)c1cccc(F)c1 | – | active: 17.8 µM |
| Oc1cc2c(c(Cl)c1O)CCNC[C@H]2c1ccccc1 | inactive: -16.3% | – |
| CCCCC/C=C\CC(O)/C=C/c1cccc(CC(O)CCCCO)n1 (configuration not stated) | – | inactive |
| COc1cc(/C=C2/SC(=S)N(CC(=O)Nc3cccnc3)C2=O)cc(OC)c1OC | inactive: 7.95% | – |
| O=C1NCN(c2ccccc2)C12CCN(CCCC(c1ccc(F)cc1)c1ccc(F)cc1)CC2 | – | inactive |
| Nc1ncnc2c1ncn2[C@@H]1O[C@H](CO)[C@H](O)[C@H]1O | inactive: 16.3% | – |
| CCN(CC)C[C@@H]1CCCCN1CC(=O)N1c2ccccc2C(=O)Nc2cccnc21 | inactive: -16.7% | – |
| N#CC(=C=[N-])c1nc2ccccc2nc1-[n+]1cccc(NC(=O)c2ccccc2)c1 | inactive: 4.84% [at 57.5 µM] | – |
| CCCCCCCC/C=C\CCCCCCCC(=O)NCCc1ccc(O)c(O)c1 | inactive: -12.3% | – |
| COc1ccc(C2CC(=O)c3c(O)cc(O)cc3O2)cc1O (configuration not stated) | inactive: 24% | – |
| CCN1C(=O)/C(=C/C2=Cc3ccccc3OC2C)SC1=S (configuration not stated) | – | active: 15.8 µM |
| O=C1NN(c2ccccc2)C(=O)/C1=C/c1ccc(Sc2ccc(Cl)cc2)o1 | – | active: 28.2 µM |
| Cc1cccc(CN2CCN(C(c3ccccc3)c3ccc(Cl)cc3)CC2)c1 (configuration not stated) | inactive: 13.6% | – |
| CC(=O)OC1c2c(ccc3ccc(=O)oc23)OC(C)(C)C1OC(=O)CC(C)C (configuration not stated) | inactive: 17.1% | – |
| COc1ccccc1NS(=O)(=O)c1ccc(N/N=C/c2c(C)nn(-c3ccccc3)c2N2CCCC2)c([N+](=O)[O-])c1 | – | active: 12.6 µM |
| O=C1CCc2cc(OCCCCc3nnnn3C3CCCCC3)ccc2N1 | – | inactive |
| C=CS(=O)(=O)c1ccc(Oc2ccc(S(=O)(=O)C=C)cc2)cc1 | – | active: 12.6 µM |
| O=C(/C=C\c1ccc(-c2cccc([N+](=O)[O-])c2)o1)N1CCOCC1 | inactive: 1.97% | – |
| C=C1C(=O)C=C2CN(C(=O)c3ccccc3)[C@@](Cc3ccc(F)cc3)(C(=O)OC)[C@@H]12 | – | active: 22.4 µM |
| O=C(Nc1cccnc1)c1ccc(Cl)c(S(=O)(=O)N2CCc3ccccc32)c1 | – | active: 25.1 µM |
| O=C1N(c2ccccc2)c2ccccc2C1(Cc1ccncc1)Cc1ccncc1 | – | inactive |
| CCN1C(c2ccccc2)=C(c2ccccc2)S/C1=C/C=C1\SC(=S)N(C)C1=O | – | active: 3.16 µM |
| COc1ccc(-c2nn(-c3ccccc3)cc2/C=N/N=C(N)N)cc1OC | – | active: 25.1 µM |

| SMILES | activity change, negative = inhibition | Potency |
| --- | --- | --- |
| Cc1ncc([N+](=O)[O-])n1CCO | inactive: -1.6% | – |
| CCOC(=O)/C(C#N)=C1/C(=O)N(Cc2ccccc2)c2ccccc21 | inactive: 12% | – |
| O=Nc1c(-c2c(O)[nH]c3ccccc23)[nH]c2ccccc12 | inactive: -17.2% | – |
| Cc1occc1C(=O)N/N=C/C(Br)=C/c1ccccc1 | inactive: -1.01% | – |
| O=C(CSc1nc2ccccc2[nH]1)N/N=C/C=C/c1ccccc1[N+](=O)[O-] | inactive: 9.06% | – |
| O=c1c(O)cccc2cc(O)c(O)c(O)c12 | inactive: -1.35% [at 57.5 µM] | – |
| CSc1ccc2c(c1)N(CC[C@H]1CCCCN1C)c1ccccc1S2 | inactive: -6.93% [at 25.7 µM] | – |
| O=C(CCCN1CC=C(n2c(=O)[nH]c3ccccc32)CC1)c1ccc(F)cc1 | – | inactive |
| OCCN1CCN(CCCN2c3ccccc3Sc3ccc(Cl)cc32)CC1 | inactive: 8.5% [at 25.7 µM] | – |
| CC(=O)Oc1cccc2c1C(=O)c1c(OC(C)=O)cc(C(=O)O)cc1C2=O | inactive: -0.776% | – |
| CN(C)CCC[C@@]1(c2ccc(F)cc2)OCc2cc(C#N)ccc21 | – | inactive |
| CCN(CC)CCOc1ccc(/C(=C(\Cl)c2ccccc2)c2ccccc2)cc1 | inactive: -13.3% [at 25.7 µM] | – |
| Cc1nn(CC(=O)NCc2cc3ccccc3[nH]2)c(C)c1[N+](=O)[O-] | – | active: 14.1 µM |
| CC1=C(C(=O)OCc2ccccc2)C(c2ccc(C(C)(C)C)cc2)NC(=O)N1CCCCCC(=O)O (configuration not stated) | inactive: -2.19% | – |
| COc1ccc(-c2csc(NC(=O)c3ccoc3C)n2)cc1 | – | active: 15.8 µM |
| COc1ccc(C(=O)OC(COc2ccccc2)Cn2ccnc2)cc1 (configuration not stated) | – | active: 7.08 µM |
| COC(=O)c1ccccc1NC(=O)COC(=O)c1ccccc1N=Nc1ccc(N(C)C)cc1 | – | active: 14.1 µM |
| CC1OC(OCC2OC(Oc3c(-c4ccc(O)c(O)c4)oc4cc(O)cc(O)c4c3=O)C(O)C(O)C2O)C(O)C(O)C1O (configuration not stated) | inactive: 0.859% | – |
| CC(=O)Oc1c2c(c3c(c1CC=C(C)C)O[C@@]14C(=CC5CC1C(C)(C)OC4(C/C=C(\C)C(=O)O)C5=O)C3=O)OC(C)(CCC=C(C)C)C=C2 (some centres not stated) | – | active: 25.1 µM |
| Cc1ccc(Cl)c(Nc2ccccc2C(=O)O)c1Cl | – | inactive |
| CC(=O)O[C@H]1C[C@@]2(C)[C@H](C[C@@H](O)[C@H]3[C@@]4(C)CC[C@@H](O)[C@@H](C)[C@H]4CC[C@@]32C)C1=C(CCC=C(C)C)C(=O)O | inactive: 5.52% [at 25.7 µM] | – |
| CN1CCN(c2nc3cc(C(F)(F)F)ccc3n3cccc23)CC1 | inactive: -2.99% | – |
| O=C(/C=C\c1ccco1)Nc1nc(-c2ccccc2)cs1 | inactive: 18.5% | – |
